In PMC4336329 (PLoS ONE, 2015):
Among all 310,000 compounds or so, about 14,000 (4.5%) showed an effect of 50% or more. Effects have a minus sign here. The list shows a part of the results.

molecular target: human ether-à-go-go-related gene (hERG) potassium channel (human, UniProt Q12809); experiment: primary screen, population patch clamp on CHO cells stably expressing hERG
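Also: peak tail current of the secondary pulse compared with the same well before compound.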

human ether-à-go-go-related gene (hERG) potassium channel, sequence (Q12809 whole entry, looked up): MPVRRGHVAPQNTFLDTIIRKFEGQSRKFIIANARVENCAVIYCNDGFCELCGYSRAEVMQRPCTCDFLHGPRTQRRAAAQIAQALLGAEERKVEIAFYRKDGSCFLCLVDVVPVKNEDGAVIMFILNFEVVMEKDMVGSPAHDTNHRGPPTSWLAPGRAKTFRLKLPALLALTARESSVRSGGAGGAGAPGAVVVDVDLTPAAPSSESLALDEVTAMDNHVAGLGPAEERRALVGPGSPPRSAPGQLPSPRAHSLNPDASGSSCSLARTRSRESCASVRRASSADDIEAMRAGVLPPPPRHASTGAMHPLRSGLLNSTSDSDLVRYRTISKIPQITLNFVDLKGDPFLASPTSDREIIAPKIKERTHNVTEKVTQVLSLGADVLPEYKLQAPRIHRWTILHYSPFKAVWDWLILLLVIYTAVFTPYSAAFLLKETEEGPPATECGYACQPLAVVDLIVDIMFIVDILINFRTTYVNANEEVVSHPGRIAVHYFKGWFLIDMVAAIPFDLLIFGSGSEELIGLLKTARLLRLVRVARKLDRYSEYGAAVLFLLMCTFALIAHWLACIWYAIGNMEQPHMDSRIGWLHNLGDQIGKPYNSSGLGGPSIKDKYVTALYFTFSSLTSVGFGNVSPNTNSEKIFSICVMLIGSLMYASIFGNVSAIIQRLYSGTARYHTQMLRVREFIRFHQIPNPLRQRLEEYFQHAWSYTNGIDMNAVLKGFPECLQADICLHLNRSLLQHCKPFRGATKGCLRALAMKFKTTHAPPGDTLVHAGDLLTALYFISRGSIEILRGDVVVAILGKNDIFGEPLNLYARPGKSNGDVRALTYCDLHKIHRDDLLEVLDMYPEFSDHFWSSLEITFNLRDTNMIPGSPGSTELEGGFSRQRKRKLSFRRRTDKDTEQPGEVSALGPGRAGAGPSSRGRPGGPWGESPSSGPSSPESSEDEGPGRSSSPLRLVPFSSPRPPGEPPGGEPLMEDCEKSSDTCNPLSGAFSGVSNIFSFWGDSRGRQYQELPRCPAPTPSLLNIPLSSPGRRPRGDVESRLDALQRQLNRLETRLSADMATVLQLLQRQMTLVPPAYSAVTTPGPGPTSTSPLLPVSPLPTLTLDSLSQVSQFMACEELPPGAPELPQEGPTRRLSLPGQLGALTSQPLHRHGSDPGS

SMILES	hERG current change (%, negative = inhibition) at 10uM [%]
CCO[C@H]1OC(C(=O)NC2CC2)=C[C@@H](C2CC2)[C@@H]1CCCO	12.3
O=C(NC1CC1)C1C2C3C4CC5C3C5C4C12 (centres unmarked)	2.43
Cc1cc(C)n(-c2ccc(C(=O)OCC(=O)NCc3ccco3)cc2)n1	0.144
O=C(CNS(=O)(=O)c1cccs1)NCc1ccccc1	12.6
O=C(c1ccc(-n2cncn2)c([N+](=O)[O-])c1)N1CCN(S(=O)(=O)c2ccccc2Br)CC1	-70.3
NC(=S)N=Nc1c(O)n(CCCl)c2ccc(Cl)cc12	9.1
Cc1ccc(S(=O)(=O)N2CCN(Cc3csc(C)n3)CC2)cc1	6.87
Cc1cccc(CSc2ccc3nnc(-c4ccccn4)n3n2)c1	-75.7
COc1cccc2[nH]c3c(=O)n(CCN(C)C)cnc3c12	-7.55
CC(C(=O)Nc1ccc(C#N)cc1)N(C)CC(=O)Nc1cccc(F)c1 (centres unmarked)	-64.7
COC(=O)NC(C)N1C(=O)C2C3C=CC(C3)C2C1=O (centres unmarked)	5.08
O=S(=O)(c1ccc(F)cc1)N1CCN(S(=O)(=O)c2cccs2)CC1	2.81
CN1CCN(C(=S)SCC(=O)Nc2ccc(Cl)cc2C(=O)c2ccccc2)CC1	-29.8
Cc1cccc2sc(NNC(=O)C3=COCCO3)nc12	-24.1
Cc1ccc2c3c1C(=O)C(=O)N3C(C)(C)CC2C (centres unmarked)	-28.4
O=C(CCN1C(=O)c2ccccc2C1=O)NCc1ccc(Cl)cc1	-16.9
Cc1cccc(-c2nc(S(=O)(=O)c3ccccc3)c(N3CCOCC3)o2)c1	-25.4
Cc1cc(=O)[nH]c2n[nH]c(-c3ccccc3)c12	4.19
CN1CCc2c(sc3c2C(=O)NC(c2cccs2)N3)C1 (centres unmarked)	-16.7

SMILES	hERG current change (%, negative = inhibition) at 10uM [%]
CN(CC(=O)NCC1CCCO1)S(=O)(=O)c1cc(Cl)ccc1Cl (centres unmarked)	-0.783
Cn1c(=O)c2nc(Cl)c(-c3ccccc3)nc2n(C)c1=O	-3.88
COc1ccc(CNC(=O)CSc2nnc(C3CC3)n2C2CC2)cc1	-9.26
Cc1ccc(S(=O)(=O)N2CCN(C(=O)COC(=O)Cc3cccc(C(F)(F)F)c3)CC2)c(C)c1	5.7
Nc1nccnc1C(=O)OCC(=O)c1ccc[nH]1	-0.119
COc1cc(NC(=O)c2cccnc2Sc2ccc(Cl)cc2)cc(OC)c1OC	11.7
Cc1cc(C)n2nc(SC(C)C(=O)NC3CCCCC3C)nc2n1 (centres unmarked)	-11.2
COC(=O)C1=C(C)Nc2nnnn2C1c1cccs1 (centres unmarked)	-4.4
CCOc1ccc(C2/C(=C(/O)c3ccc4c(c3)CC(C)O4)C(=O)C(=O)N2CCCn2ccnc2)cc1 (centres unmarked)	6.06
O=C(CC(=O)NCc1ccccc1)NCc1ccccc1	12.1
O=C(c1oc(=O)c2ccccc2c1-c1ccccc1)N1CCN(C2CCCCC2)CC1	-61.6
O=C(NCCc1ccc(Cl)cc1)C1CCC(CNc2c(N3CCCCC3)c(=O)c2=O)CC1 (centres unmarked)	-15.3
Cc1ccc(OCCCCN2CCCCC2)c(Br)c1.O=C(O)C(=O)O	-62.6
C[C@@H](CN=[N+]=[N-])CN1CC[C@H](O)CCC1=O	7.09
CC(=O)N(C)c1ccc(NC(=O)Nc2ccc(Cl)cc2)cc1	-7.31
COC(=O)C1CCN(C(=O)COC(=O)CSc2ccc(C(N)=O)cc2[N+](=O)[O-])CC1	8.66
CCc1nc(N2CCC3(CC2)OCCO3)c2nnn(Cc3ccccc3Cl)c2n1	-8.52
O=C(CN1CCN(C(=O)C2COc3ccccc3O2)CC1)Nc1ccc(F)cc1 (centres unmarked)	-75.7
Cc1cc(=O)oc2c(C)c(OCC(=O)N3CCC(C(=O)O)(c4ccccc4)CC3)ccc12	20

SMILES	hERG current change (%, negative = inhibition) at 10uM [%]
C[C@H](NC(=O)C1CCN(S(=O)(=O)c2ccccc2)CC1)C(=O)NCc1ccco1	25.5
COc1cc(C(=O)NCC(c2ccc(F)cc2)N2CCOCC2)ccc1OCc1ccccc1Cl (centres unmarked)	-40.9
Cc1ccc(S(=O)(=O)NCC(=O)N(CC2CCCO2)C(C(=O)NC2CCCC2)C(C)C)cc1 (centres unmarked)	-1.47
O=C(Nc1cccc(NC(=O)c2ccco2)c1)c1cnccn1	-11.2
Cc1ccccc1NC(=O)Cn1nc(-c2ccc(Cl)s2)ccc1=O	13.6
CCn1c2ccccc2c2cc(N=C3SC(CC(=O)Nc4ccccc4OC)C(=O)N3C)ccc21 (centres unmarked)	8.15
CCCCCCCCCCCCN1[C@@H](CC(=O)O)c2cc(F)ccc2S1(=O)=O	-4.69
COc1ccc(OC)c(CN2CCN(CC(=O)Nc3ccccc3C(=O)NC3CC3)CC2)c1	-82.5
Cc1ccc(Cn2nc(C)c(C(=O)NCC(c3cccs3)N3CCOCC3)c2Cl)cc1 (centres unmarked)	-16.4
Cc1cc(C)c2c(n1)sc1c(-c3ccccc3)c(C#N)c(N)nc12	-6.52
Cc1ccc(C(C(=O)NC2CCCC2)N2CCCCC2)cc1 (centres unmarked)	-9.12
Cl.O=C([C@@H]1Cc2ccccc2CN1)N1CCN(Cc2ccccc2)CC1	-31.7
CCOc1ccc(NCc2cccn2-c2nnc(N3CCC(C(=O)NCCCN4CC(C)CC(C)C4)CC3)s2)cc1 (centres unmarked)	-66.2
O=c1[nH]c2ccc(S(=O)(=O)N3CCC(Cc4ccccc4)CC3)cc2o1	13.9
Fc1cc(Br)ccc1NC(=S)Nc1cccnc1	0.43
CCCn1nnnc1-c1cc(Cl)cc(Cl)c1	-20.9
COc1ccc(N2CCC(N3CCN(C)C(CCO)C3)CC2)cc1 (centres unmarked)	10.2
O=C(NC(=Nc1nc2ccccc2o1)NC(=O)c1ccccc1)c1ccccc1	22.5
